Source: PubChem BioAssay AID485281 (National Center for Advancing Translational Sciences (NCATS), 2010)
Hit rate of the full screen: of about 350,000 compounds, about 260 (0.074%) were called active. The inconclusive results got no clear call from the source; some entries with a clear call stand among them for comparison. The call rests on the fitted dose curve; in most records, active means well fitted inhibition curve with a large enough effect; inconclusive means small, poorly fitted or top-dose-only effect; inactive means no such curve, though single readings can be large or run the other way. A potency beside an inconclusive call is a rough fit, not a confirmed value.

The molecules below were run against Ferritin light chain (Equus caballus) (UniProt P02791) (assay: qHTS Assay for Identification of Novel General Anesthetics). Conditions: apoferritin/1-aminoanthracene competitive binding, fluorescence; activity change, negative = displacement: at 77.5 µM (top of the series).
UniProt P02791, sequence (P02791 whole entry, looked up): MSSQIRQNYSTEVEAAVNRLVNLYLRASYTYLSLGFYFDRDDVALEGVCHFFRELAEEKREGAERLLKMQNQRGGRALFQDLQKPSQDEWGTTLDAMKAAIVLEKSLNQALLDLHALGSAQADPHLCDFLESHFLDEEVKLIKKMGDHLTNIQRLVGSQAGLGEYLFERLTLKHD
How it was run: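 Horse-spleen apoferritin (10 uM) in 50% saturated 1-aminoanthracene in PBS was incubated 10 min at room temperature with compound. Fluorescence (ex 380, em 535 nm) was normalized to free and bound 1-AMA, with concentration-response fitted by a four-parameter Hill equation.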
Further: nearly all actives have a fitted effect of over 20% in size.
On the % scale 0 is the no-effect control and ±100 the full control effect; potency means the concentration at half of the fitted maximal effect; tags describe the fitted curve by direction and shape.

Potency, inconclusive:
O=C(COc1ncnc2ccc(Br)cc12)NCc1ccc2c(c1)OCO2 14.1 µM [inhibitor, partial curve]
O=C(CSCc1ccccc1Cl)NN1C(=O)c2ccccc2C1=O 22.4 µM [inhibitor, partial curve]
Cc1ccc(-c2nn3c(C)nnc3s2)cc1NC(=O)c1ccc(OC(C)C)cc1 14.1 µM [inhibitor, partial curve]
CN1C(C(=O)NCc2ccc(OC(F)(F)F)cc2)CC2Cn3c(nc4cc(Cl)c(Cl)cc43)C21 (stereo unspecified) 35.5 µM [inhibitor, single point]
Cc1cc(C)c(C#N)c(SCS(=O)Cc2ccccc2)n1 (stereo unspecified) 39.8 µM [inhibitor, single point]
O=C(O)COc1ccccc1/C=N/Nc1ccc(S(=O)(=O)Nc2ccc(Cl)cc2)cc1[N+](=O)[O-] 8.91 µM [inhibitor, partial curve]
COc1ccc(-n2ncc3c(=O)n(CC(=O)Nc4ccc(S(=O)(=O)N5CCOCC5)cc4)cnc32)cc1 12.6 µM [inhibitor, partial curve]
O/N=C/c1ccc(OCc2ccccc2F)c(Cl)c1 50.1 µM [inhibitor, single point]
COc1ccc(NS(=O)(=O)c2ccc(NC(=O)C(C)(C(F)(F)F)C(F)(F)F)cc2)nn1 39.8 µM [inhibitor, partial curve]
CCOc1ccc(CCNC(=O)CN2C(=O)COc3ccc(S(=O)(=O)N4CCCC4)cc32)cc1 28.2 µM [inhibitor, partial curve]
O=C(c1ccc(Cl)cc1Cl)c1ncc(C(F)(F)F)cc1Cl 31.6 µM [inhibitor, partial curve]
Cc1ccc(OCC(=O)N2CCN(c3ccc([N+](=O)[O-])c(N4CCOCC4)c3)CC2)cc1 25.1 µM [inhibitor, partial curve]
Cc1ccc2[nH]c(=O)c(CN(Cc3ccc4c(c3)OCO4)Cc3nnnn3C3CCCC3)cc2c1 5.62 µM [inhibitor, single point]
Cc1ccc(-c2nc(CS(=O)(=O)CC(=O)NC3CCC(C)CC3)c(C)o2)cc1 (stereo unspecified) 15.8 µM [inhibitor, partial curve]
CC(C)c1ccc(C2NC(=O)c3n[nH]c(-c4cccs4)c32)cc1 (stereo unspecified) 25.1 µM [inhibitor, partial curve]
CC1(C)CCC(=O)N(c2ccccc2)C1=O 50.1 µM [inhibitor, single point]
Cc1cccc(-c2nc(C)c(CCNC(=O)C(=O)Nc3ccccc3C#N)s2)c1 12.6 µM [inhibitor, partial curve]
Cc1ccc(Cn2ccnc2SCC(=O)NCc2ccccc2Cl)cc1 56.2 µM [inhibitor, single point]
Cc1oc(-c2ccc(C(=O)NCc3cccc(F)c3)cc2)nc1COc1ccccc1 3.55 µM [inhibitor, full curve]
O=C(CCCN1C(=O)c2cccc3cccc(c23)C1=O)N1CCc2ccccc2C1 25.1 µM [inhibitor, partial curve]
COc1ccc(C(=O)COC(=O)COc2ccc(C)c(C)c2)cc1 28.2 µM [inhibitor, partial curve]
COc1ccc(CCNC(=O)Cc2c(C)c3cc4c(C(C)(C)C)coc4c(C)c3oc2=O)cc1 35.5 µM [inhibitor, partial curve]
CCC(=O)NC1Cc2ccccc2C(c2ccccc2)C1 (stereo unspecified) 28.2 µM [inhibitor, partial curve]
CCc1ccc2[nH]c(=O)c(C(c3nnnn3CCOC)N3CCN(c4ccccc4)CC3)cc2c1 (stereo unspecified) 35.5 µM [inhibitor, partial curve]
Nc1nnc(CCC2CCCCC2)s1 7.08 µM [inhibitor, partial curve]
Cc1ccc(OCCn2cnc(Cl)c2Cl)cc1 22.4 µM [inhibitor, partial curve]
O=S(=O)(NCCC1=CCCCC1)c1ccc(Br)cc1 44.7 µM [inhibitor, partial curve]
C=CCOc1cccc(C(=O)/C=C2/C(=O)Nc3ccccc32)c1 44.7 µM [inhibitor, single point]
O=C(CNC(=O)c1cccc(OC(F)F)c1)OCC(=O)c1ccccc1 31.6 µM [inhibitor, partial curve]
CSCCC(NC(=O)c1ccccc1)C(=O)N(C)CC(=O)Nc1ccc(N2CCOCC2)cc1 (stereo unspecified) 39.8 µM [inhibitor, single point]
CCN(C(=O)c1ccc(Cl)cc1[N+](=O)[O-])c1ccccc1C 31.6 µM [inhibitor, partial curve]
Cc1ccc(NCc2ccccc2O)cc1 11.2 µM [inhibitor, partial curve]
COc1cccc(-c2cc(C(=O)N3C(C)CCCC3C)no2)c1 (stereo unspecified) 10 µM [inhibitor, partial curve]
Nc1nc2c(s1)CC(c1ccccc1)CC2 (stereo unspecified) 39.8 µM [inhibitor, partial curve]
CC1(C(=O)N2CCN(c3ccc([N+](=O)[O-])cc3)CC2)CC1(Cl)Cl (stereo unspecified) 31.6 µM [inhibitor, single point]
CC1CCCC(C)N1C(=O)CSCc1ccc(Cl)cc1 (stereo unspecified) 31.6 µM [inhibitor, single point]
CC1=CCC2C(=O)N(c3nc4ccccc4n3C)C(=O)C2C1 (stereo unspecified) 15.8 µM [inhibitor, partial curve]
O=C(NCc1cccs1)Nc1cc(Cl)ccc1Cl 4.47 µM [inhibitor, full curve]
Cc1ccc(Cn2nnc(C(=O)Nc3cc(C)ccc3C)c2N)cc1 5.62 µM [inhibitor, partial curve]
O=C(CSC1=NCCS1)Nc1ccc(S(=O)(=O)N2CCCCCC2)cc1 2.24 µM [inhibitor, full curve, poor fit]
Cc1ccc(C(=O)NCCS(=O)(=O)N2CCN(c3ccccc3F)CC2)cc1[N+](=O)[O-] 15.8 µM [inhibitor, partial curve]
O=C1CC(N2CCN(c3cccc(C(F)(F)F)c3)CC2)C(=O)N1c1ccccc1F (stereo unspecified) 35.5 µM [inhibitor, partial curve]
CC12C(=O)N(c3cccc4cccnc34)C(=O)C1C1C=CC2C1 (stereo unspecified) 22.4 µM [inhibitor, partial curve]
O=C(Nc1ccc(Cc2ccncc2)cc1)c1ccc(Cl)c([N+](=O)[O-])c1 17.8 µM [inhibitor, partial curve]
O=C(CSc1nc(-c2ccccc2Cl)ns1)NCc1ccc2c(c1)OCO2 28.2 µM [inhibitor, single point]
COc1cc2cc3c(N)c(C(=O)Nc4sc(C)c(C)c4C#N)sc3nc2cc1OC 50.1 µM [inhibitor, single point]
Cc1cccc(C)c1NC(=O)CSc1nnc(Cn2nnc(-c3ccccc3)n2)n1-c1ccccc1 5.01 µM [inhibitor, full curve, poor fit]
Nc1c(Cl)c(Cl)nc(C(=O)OCC(=O)NC2CCCCC2)c1Cl 31.6 µM [inhibitor, partial curve]

Potency, active:
CCCCCCCCCCCCCCCC[n+]1cccc(C(=O)N(CC)CC)c1 15.8 µM

Potency, inactive:
N[C@@H](Cc1cc(I)c(Oc2ccc(O)c(I)c2)c(I)c1)C(=O)O

Activity change, negative = displacement, inconclusive:
CCN(c1cccc(C)c1)S(=O)(=O)c1cc(CN2C(=O)c3cccnc3C2=O)ccc1OC -29.5% [inhibitor]

Activity change, negative = displacement, inactive:
COC(=O)C/C=C\[C@H](C)[C@H](CO)NS(=O)(=O)c1ccc(C)cc1 -4.87% [at 15.3 µM]
Cc1ccc(-n2c(SCC(=O)Nc3cccc(S(=O)(=O)NC4=NCCCCC4)c3)nc3ccccc3c2=O)cc1 -6.57%
Cc1cc(OC(C)C(=O)Nc2cccc(-c3nc4ccccc4o3)c2)cc(C)c1Cl (stereo unspecified) 6%
CCOC(=O)c1ccc(N2C(=O)c3n[nH]c(-c4ccco4)c3C2c2cccc(OC)c2)cc1 (stereo unspecified) -13.3%
O=C1C=CC2=C3c4cc(O)c(O)cc4C[C@]3(O)COC2=C1 36.2%
O=C(NCC1CCCO1)c1nnc(Cc2ccc(F)cc2)o1 (stereo unspecified) -12.4%
CCOC(=O)c1cc2occc2n1Cc1c(F)cccc1Cl -6.97%
CCn1cc(C(=O)Nc2cccc(Cl)c2)c2cc(OC)c(OC)cc2c1=O -21.7%
COc1ccc(Cc2nn3c(Cn4nnc5ccccc54)nnc3s2)cc1 -10.8%
CC(C)=CCC1=C(OCC(=O)O)C(=O)c2ccccc2C1=O -9.8%
CC(C)(C)c1ccc(C(=O)NCC(c2cccnc2)N2CCc3ccccc3C2)cc1 (stereo unspecified) -8.74%
COc1ccc(-c2cc(C(=O)OC3CCOC3=O)c3ccccc3n2)cc1 (stereo unspecified) -13.1%
c1coc(Cn2c(-c3ccco3)nc3ccccc32)c1 -17.6%
O=C(N/N=C/c1cccc(F)c1)c1cc(-c2ccco2)nc2ccccc12 37.5%
c1ccc(CN2CCN(c3nc4ccccc4s3)CC2)cc1 -4.41%
